According to PubChem BioAssay AID1508642 (National Center for Advancing Translational Sciences (NCATS), 2021):
About 200 (0.47%) of roughly 43,000 compounds were called active. Inconclusive results (about 12%) are left out. Calls follow the shape of the dose curve; as a rule, active = well fitted cell-killing curve with a large enough effect; inconclusive = small, poorly fitted or top-dose-only effect, or effect the other way; inactive = flat fitted curve, though single readings scatter. The list shows a part of the results.

Assay: Cell viability qHTS assay in S16 Pmp22-F2sN cells; also: nearly all actives have a fitted effect of over 65% in size
Conditions: S16 Pmp22-F2sN Schwann cells (luciferase reporters placed in the Pmp22 gene) viability, CellTiter-Glo, 24 h; series mostly up to 57.5 µM; activity change, negative = cytotoxicity: at the top concentration
Outline: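 Rat S16 Schwann reporter line, 24 h treatment with library compounds delivered at 23 nL per well. Cell viability by CellTiter-Glo luminescence.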
% is scaled to controls: 0 for no effect and ±100 for the full control effect.

SMILES	activity change, negative = cytotoxicity
COc1ccc(Nc2nc(-c3cccc(Cl)c3)c3c(n2)-c2ccccc2OC3)cc1	inactive: 1.78%
CCOc1ccccc1CNC(=O)Cc1ccc(NC(=O)N2CCCCc3ccccc32)cc1	inactive: 2.88%
CCOc1ccc(NC(=O)CSc2nc3ccsc3c(=O)n2C(C)CC)cc1 (stereo unspecified)	inactive: 0.327%
CCOc1cccc(Nc2nn(-c3ccc(OC(F)(F)F)cc3)nc2C(C)=O)c1	inactive: 0.25%
CCOC(=O)c1cnc2c(C)c(Cl)ccc2c1NCCc1ccc(OC)c(OC)c1	inactive: 15.2%
Cc1cccc2c1-c1sc(C(=O)N3CCN(c4ccccc4)CC3)cc1CO2	inactive: -1.99%
COc1ccc(-c2noc(N3CCC(C(=O)N4CCN(c5ccccc5OC)CC4)CC3)n2)cc1	inactive: -14.3%
CCCCNS(=O)(=O)c1ccc2nc(-c3cccnc3)cc(C(=O)NCCCOC(C)C)c2c1	inactive: 1.46%
Cc1cccc(Cn2cc3c(=O)n(CC(=O)Nc4c(C)cccc4C)nc-3c3cc(F)ccc32)c1	inactive: 9.82%
Cc1c(Cl)cccc1NC(=O)CCCn1nc(C)c2sc3ccccc3c2c1=O	inactive: 9.7%
Cc1ccc(NC(=O)C2CCN(S(=O)(=O)c3c(C)noc3C)CC2)cc1	inactive: -0.683%
CC1(C)CC(=O)c2cc(-c3nc(-c4ccccc4)cs3)c(=O)[nH]c2C1	inactive: 7.71%
CC(C)Sc1nc2sc3c(c2c(=O)n1Cc1ccccc1)CCCC3	inactive: 25.1%
Cc1cc(NC(=O)C(C)(C)C)cc(-c2nc3ncccc3o2)c1O	inactive: 8.41%
Cc1cc(NC(=O)c2cnc3c(-c4ccccc4)c(C)nn3c2C)ccc1Br	inactive: 8.14%
Cc1cccc(N2CCN(C(=O)CN3C(=O)COc4ccc(S(=O)(=O)N5CCCC5)cc43)CC2C)c1 (stereo unspecified)	inactive: 7.35%
COc1ccc(OCC(=O)NCC(c2ccc(OC)cc2)N2CCOCC2)cc1 (stereo unspecified)	inactive: 12.8%
COc1ccc(-c2c(C)c3ccc(O)c(CN4CCCC4)c3oc2=O)cc1	inactive: 4%
COc1cccc(CNCCSc2nnnn2-c2ccccc2)c1OC	inactive: -0.0805%
CCc1c(CN2CCN(c3ccccc3F)CC2)csc1C	inactive: 3.88%
CCn1c(SCC(=O)c2ccccc2)nnc1-c1cccc(Cl)c1	inactive: -15.2%

SMILES	activity change, negative = cytotoxicity
Cc1ccc(/C=C/c2onc(C)c2S(=O)(=O)N2CCC(C(=O)NCc3ccc(OC(C)C)cc3)CC2)cc1	inactive: 2.44%
COc1ccc(CC(=O)NC2CC(=O)N(c3ccc(C)c(C)c3)C2)cc1OC (stereo unspecified)	inactive: 1.57%
O=C(Cn1c(=O)oc2cc(S(=O)(=O)N3CCCCC3)ccc21)NCc1ccc(F)cc1	inactive: 2.23%
CCc1ccc(NC(=O)CSc2ncc(S(=O)(=O)c3cc(C)ccc3C)c(=O)[nH]2)cc1	inactive: 5.89%
CCOC(=O)C(Cc1ccccc1)NC(=O)CCc1c(C)nc2c(c(C)nn2-c2ccc(C)c(C)c2)c1C (stereo unspecified)	inactive: 0.435%
COC(=O)c1ccccc1NC(=O)C1CCCN(c2nnc(C)c3c(C)n(-c4ccccc4)nc23)C1 (stereo unspecified)	inactive: 11.8%
O=C(CN1C(=O)CCc2cc(S(=O)(=O)N3CCCCC3)ccc21)NCc1ccc(Cl)cc1	inactive: -17.2%
Cc1cccc2sc(N(Cc3cccnc3)C(=O)C3COc4ccccc4O3)nc12 (stereo unspecified)	inactive: 0.445%
Cc1ccc(CNC(=O)CN2C(=O)C3(SCC(=O)N3c3ccc(F)c(F)c3)c3ccccc32)cc1 (stereo unspecified)	inactive: -1.36%
COc1ccc(-c2nc(Cn3c(SCc4ccccc4F)nc4cccnc43)c(C)o2)cc1	inactive: -7.48%
Cc1cccc(S(=O)(=O)c2cn(C)c3cc(N4CCC(C)CC4)c(F)cc3c2=O)c1	inactive: 0.216%
CCC(=O)N1c2ccc(S(=O)(=O)CCC(=O)NCc3cccc(OC)c3)cc2CC1C (stereo unspecified)	inactive: 13.9%
CC(=O)Nc1ccc(NC(=O)c2cc(-c3ccc4c(c3)OCCO4)on2)cc1	inactive: 14.3%
CCc1ccc(N(CC)C(=O)Cn2cnc3sc(C)c(S(=O)(=O)N4CCN(c5ncccn5)CC4)c3c2=O)cc1	inactive: -0.0756%
CCCOc1ccccc1C1C(C(=O)Nc2ccccc2)=C(C)Nc2nnnn21 (stereo unspecified)	inactive: -15.4%
CCCC1=Nc2cc(C(=O)NCCOC)ccc2Sc2ccccc21	inactive: -6.67%
Cc1ccc2onc(CC(=O)N3CCN(c4ccccc4)CC3)c2c1	inactive: -2.42%
CCOc1ccc(NC(=O)C(C)n2c(=O)cc(C)c3c(C)nn(-c4ccccc4)c32)cc1 (stereo unspecified)	inactive: 0.819%
N#C/C(=C\c1cc(Br)c(O)c(Br)c1)c1nc2ccccc2c(=O)[nH]1	inactive: 18.4%
CCc1ccc(OCC(=O)Nc2ccc3c(c2)c2ccccc2n3CC)c(Br)c1	inactive: -14.5%
O=C(NCc1ccccc1Cl)c1nnc(Cc2ccc(Cl)cc2)o1	inactive: -0.626%

SMILES	activity change, negative = cytotoxicity
Cc1cccc(CSc2ccc(-c3cccs3)nn2)c1	inactive: -8.99%
COc1ccc(-c2noc(CSc3nnc(C)n3-c3ccc(C)c(C)c3)n2)c(OC)c1	inactive: -23.4%
COc1ccc(-c2nc(SCC(=O)NCCc3ccccc3)n[nH]2)cc1	inactive: 0.561%
Cc1ccc(CCNC(=O)CCn2nc(-c3ccc(C)cc3)ccc2=O)cc1	inactive: -5.93%
COC(=O)c1ccc2c(=O)n(CCCCCC(=O)N3CCN(c4ccc(Cl)cc4)CC3)c(=O)[nH]c2c1	inactive: -4.44%
COc1cccc(C(=O)n2nc(-c3cccnc3)nc2NCc2ccc(F)cc2)c1	inactive: 7.45%
CCN(CC)CCSc1nnc2c3cc(F)ccc3n(CC)c2n1	inactive: -8.56%
Oc1c(C(c2ccccc2F)N2CCCC2)sc2nc(-c3ccco3)nn12 (stereo unspecified)	inactive: 16.5%
O=C(NCCc1ccccc1)c1ccc(CS(=O)(=O)c2ccc(Cl)cc2)o1	inactive: -4.69%
COc1ccccc1CNC(=O)Cn1c(=O)nc(-c2ccccc2)c2ccccc21	inactive: 6.56%
CCCSc1nnc2c(n1)OC(c1cccs1)Nc1ccc(Br)cc1-2 (stereo unspecified)	inactive: 1.76%
CN(C(=O)CSc1nc2ccccc2n1Cc1ccccc1C#N)c1ccccc1	inactive: -11.1%
CCOc1ccc(-c2nc3cc(NC(=O)COc4cccc(C)c4)ccc3o2)cc1	inactive: 0.64%
O=c1c2sc3ccccc3c2n(Cc2ccc(F)cc2Cl)c(=O)n1Cc1ccccc1	inactive: -6.1%
CCOc1ccc(-n2c(=O)c3c(C)c(C(=O)N(C)C)sc3n(Cc3cc(C)ccc3C)c2=O)cc1	inactive: 2.15%
Cc1ccc(S(=O)(=O)C(CNC(=O)C(=O)NCc2ccc(Cl)cc2)c2ccco2)cc1 (stereo unspecified)	inactive: -1.76%
CCOC(=O)c1ccc(-c2ccc(/C=C(\C#N)C(=O)Nc3ccc(C)cc3)o2)cc1	inactive: -4.25%
COCC(=O)Nc1c(C(=O)Nc2ccc(C)cc2)oc2ccccc12	inactive: 8.05%
Cc1ccc2oc(-c3ccc(C)c(NC(=O)c4ccc(-c5ccccc5[N+](=O)[O-])o4)c3)nc2c1	inactive: -5.87%
